# Test results from PMC7819943, “Rice protein-binding microarrays: a tool to detect cis-acting elements near promoter regions in rice”.
# The other results are listed elsewhere or left out.
# Target: T1, OsWOX13 (Oryza sativa, UniProt Q5QMM3 1-267)
# T1 sequence: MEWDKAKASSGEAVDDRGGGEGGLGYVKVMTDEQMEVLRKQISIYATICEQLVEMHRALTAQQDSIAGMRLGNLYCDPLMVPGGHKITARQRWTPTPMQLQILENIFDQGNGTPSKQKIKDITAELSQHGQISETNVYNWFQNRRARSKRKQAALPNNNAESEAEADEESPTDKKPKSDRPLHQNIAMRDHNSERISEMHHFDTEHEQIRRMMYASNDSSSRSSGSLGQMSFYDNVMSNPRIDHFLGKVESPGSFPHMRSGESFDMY
# Experiment: protein-binding microarray (RPBM); PBS, 2% BSA, 51.3 ng/ul salmon testes DNA, 50 uM zinc acetate, 200 nM TF, 25 C, 1 h; high values mean tight binding
# Conditions: protein: recombinant; tags: N-terminal polyhistidine and DsRed monomer fusion (pET32a); label: CyDye5-dUTP incorporated in the synthesized complementary strand; 3' TTTTT single-stranded linker to array surface; dsDNA, one strand shown
# In short: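 Transcription factors were each fused at the N-terminus to a polyhistidine tag plus DsRed and expressed in E. coli BL21-CodonPlus before Ni–NTA purification. Binding to a double-stranded custom Agilent array was carried out with 200 nM protein at 25 °C for 1 h in PBS, 2% BSA, salmon testes DNA and 50 µM zinc acetate. The binding signal is per-feature fluorescence intensity, in arbitrary units, on an Axon 4000B scanner.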
row,Sequence,binding signal
1,AGATATGTGCCCATAATTAATTAATTAAGTAGATAATATCCGGAGTCACCTAGTGCAG,13600 fluorescence intensity (a.u.)
2,AAAATTGACGATTTTCGCAGACGGTCCGCCTGGGAAGATTCGGAGTCACCTAGTGCAG,20100 fluorescence intensity (a.u.)
3,ACTTCATTGACGGTTTGACACTAATCCTAACATTCACATTCGGAGTCACCTAGTGCAG,6430 fluorescence intensity (a.u.)
4,TGATGGATTAATATATGATTAATTAAGTATTAGCTTAAACCGGAGTCACCTAGTGCAG,13200 fluorescence intensity (a.u.)
5,TTTGTGCAAATTAGGCCTATTAATAAAGCCCATTGGGCTTCGGAGTCACCTAGTGCAG,3640 fluorescence intensity (a.u.)
6,ATAATGATTTATGTAATCATTTAATAGATATAAATGGTTACGGAGTCACCTAGTGCAG,34600 fluorescence intensity (a.u.)
7,GTGTTATTTATCAATTAAATACCAAATTCAAGATCTATATCGGAGTCACCTAGTGCAG,11200 fluorescence intensity (a.u.)
8,GGCTCGATTGAACAACCCCACCTGCGAGGGCCGATTCCCCCGGAGTCACCTAGTGCAG,4140 fluorescence intensity (a.u.)
9,TGATTTTAGTCAATTGATGATCAATATATAACGGATGGAACGGAGTCACCTAGTGCAG,7850 fluorescence intensity (a.u.)
10,ATCCATCAATTTATATAGAAATCGATGATCAGTTGCTATACGGAGTCACCTAGTGCAG,13400 fluorescence intensity (a.u.)
11,TTGAGAGATTTGTCAAAATTGATGCCATATCTCAAAGGTACGGAGTCACCTAGTGCAG,7530 fluorescence intensity (a.u.)
12,CAAAGAAATGATTTATTATAGTAGGTGTTAATTAGCTTTACGGAGTCACCTAGTGCAG,7810 fluorescence intensity (a.u.)
13,GGCTAATTTGGCGAGGTAATACGGTAGTATAGCACGGTTACGGAGTCACCTAGTGCAG,10500 fluorescence intensity (a.u.)
14,CCCGATAATCACAATCTATTTGACAACTTGATAACAAATTCGGAGTCACCTAGTGCAG,18900 fluorescence intensity (a.u.)
15,GGGTGCTGAAATTGATATACGATCAATTGTTGTCGGTGATCGGAGTCACCTAGTGCAG,14000 fluorescence intensity (a.u.)
16,TAATGGTTTTCAGACAAATGGATAATTAAGCTGATAGCGACGGAGTCACCTAGTGCAG,65400 fluorescence intensity (a.u.)
17,GAATTGATGAATGTTGAATTTCTGGGTTAATATGTTGCTACGGAGTCACCTAGTGCAG,13200 fluorescence intensity (a.u.)
18,ACAAGTTTATCCTAATTGCTTCCTGCCACACACTCGTCAACGGAGTCACCTAGTGCAG,5830 fluorescence intensity (a.u.)
19,GGGCTGACTGGAAAGTGCTGGTCTGTTTCTACTTAATCTGCGGAGTCACCTAGTGCAG,6740 fluorescence intensity (a.u.)
20,CACTAATCAGTAATCAAGTATAATCAGTTCGGTTTCCGCACGGAGTCACCTAGTGCAG,29300 fluorescence intensity (a.u.)
21,ATGTGGTAGTTGATTTAGACAAAACAATTACCACTAGATACGGAGTCACCTAGTGCAG,4950 fluorescence intensity (a.u.)
22,GCTCAATTAACGCACCGATTAAGTTGGTTCATCAGATTAGCGGAGTCACCTAGTGCAG,11800 fluorescence intensity (a.u.)
23,AGATGATTTGGAGGCAGTAGTTGAGCAGTGAGAAACTCGACGGAGTCACCTAGTGCAG,7120 fluorescence intensity (a.u.)
24,CATACAAGATTGGCTACATGGGCATCGAGAAATGTAAATACGGAGTCACCTAGTGCAG,5940 fluorescence intensity (a.u.)
25,ACCTTAATCACAAACTCTCTAGTACACCGTGTTTGAACACCGGAGTCACCTAGTGCAG,4190 fluorescence intensity (a.u.)
26,CATGATTGCTCATCTTTGTATTAAAAGAAATAATTTATGTCGGAGTCACCTAGTGCAG,53500 fluorescence intensity (a.u.)
27,GCTGATTTAAGGTTACGTGGGTGTGCTTGAGAAGAAGGGGCGGAGTCACCTAGTGCAG,20300 fluorescence intensity (a.u.)

row,Sequence,binding signal
1,TGAGTCTGATTTACAAAAGACAGTTTTAATTTTGGTGTTCCGGAGTCACCTAGTGCAG,11600 fluorescence intensity (a.u.)
2,AATCCAATTAAGCTGCGTACATCGCACATTTCGTGCTGCCCGGAGTCACCTAGTGCAG,5030 fluorescence intensity (a.u.)
3,AGCACATGATTAATTAAGCTTTAATCATTATAAACTTGATCGGAGTCACCTAGTGCAG,41000 fluorescence intensity (a.u.)
4,CGAAATTTGTTACGTGACATCGTAGCTTTATATGGAAAATCGGAGTCACCTAGTGCAG,4380 fluorescence intensity (a.u.)
5,AATTAACATCAATAACAAAGTGTTGTACTGTAATCATCTTCGGAGTCACCTAGTGCAG,4050 fluorescence intensity (a.u.)
6,AAGCTAAATTTAGGAGTTGGAACTCTATCAAACAGGCCTTCGGAGTCACCTAGTGCAG,4340 fluorescence intensity (a.u.)
7,ACATTTTATTCCAATCATTGCTCTTTATGTTATCAATCTTCGGAGTCACCTAGTGCAG,13600 fluorescence intensity (a.u.)
8,ACCCAGATTGAGGCCCATTCAAATCAGGCCTGAATTACATCGGAGTCACCTAGTGCAG,17800 fluorescence intensity (a.u.)
9,ACATATTTTAATTGTTATTTAGAGAAGAGTGTACAATGACCGGAGTCACCTAGTGCAG,3540 fluorescence intensity (a.u.)
10,GTTAAAATTGGAACGATGTGATGGAAAAGTTAGACGTTTACGGAGTCACCTAGTGCAG,7780 fluorescence intensity (a.u.)
11,CCAGACAGGATATTTCCAATCGCTGACGAGGTGGGCCCCACGGAGTCACCTAGTGCAG,3610 fluorescence intensity (a.u.)
12,ATTGACTTCTTGATTGAACGTTCCATCTATAATCTGTTCTCGGAGTCACCTAGTGCAG,37100 fluorescence intensity (a.u.)
13,ATGTTAGATAGGATGACTGGATGAGTTGGTTACTAAAAGCCGGAGTCACCTAGTGCAG,7270 fluorescence intensity (a.u.)
14,AGAGATTGGCCTCCTGCATTGATTCAAGATTTCCAAATGGCGGAGTCACCTAGTGCAG,12500 fluorescence intensity (a.u.)
15,TCACAAATTTTGTAAAATTTGTGTGGCATGGTTCAAATTCCGGAGTCACCTAGTGCAG,18900 fluorescence intensity (a.u.)
16,CTGGATTACAAATTAGTGCAGGGAAACAGGTACCACTTGTCGGAGTCACCTAGTGCAG,21400 fluorescence intensity (a.u.)
17,TGGAGAGTTTTGATTGGTTGGGAAGAGAATGTTGATAGAGCGGAGTCACCTAGTGCAG,20200 fluorescence intensity (a.u.)
18,TCGTTAAATGGTGTTTATATCTACCCTATAGTTAAACAAACGGAGTCACCTAGTGCAG,3860 fluorescence intensity (a.u.)
19,CACTGATCAGTGAAATCATTATTCCACACGCTCATGCTACCGGAGTCACCTAGTGCAG,4400 fluorescence intensity (a.u.)
20,TAATAATAAATTTACCGATCTGCCCTTGCTTGCGGCTTTTCGGAGTCACCTAGTGCAG,4570 fluorescence intensity (a.u.)
21,TTAAATTAGCTTAATTAGATAGCTGCGACTGACCTGGACACGGAGTCACCTAGTGCAG,51700 fluorescence intensity (a.u.)
22,GTAATTAACGTGTACTAATGTAATTTGCCACACATCCTGGCGGAGTCACCTAGTGCAG,24200 fluorescence intensity (a.u.)
23,TCCCTAAATTTTGCTTATTTTCTTGTATATACTGTTTACACGGAGTCACCTAGTGCAG,5720 fluorescence intensity (a.u.)
24,GGCGATTGAATTAATTTTAATAATCAATGATACTAGTAGTCGGAGTCACCTAGTGCAG,45200 fluorescence intensity (a.u.)
25,TTAATTTGCTGACATATCTCTTCCGTTCTTGAATATTGATCGGAGTCACCTAGTGCAG,3770 fluorescence intensity (a.u.)
26,ACCTGACAGATATCACCCGATACCTATGTGGATACTAGGCCGGAGTCACCTAGTGCAG,15900 fluorescence intensity (a.u.)
27,TGCGTGATTGTTGGGATTATTTTATTAATTGATCCAATGGCGGAGTCACCTAGTGCAG,57200 fluorescence intensity (a.u.)
